This note sets out measurements from article PMC4336329 (PLoS ONE, 2015).

The whole screen tested about 310,000 compounds, of which about 2,200 (0.71%) showed an effect of 50% or more. The effect is printed as a negative number. Some of the results follow.

The test deals with human ether-à-go-go-related gene (hERG) potassium channel (human, UniProt Q12809). Description: primary screen, population patch clamp on CHO cells stably expressing hERG.
Chain of human ether-à-go-go-related gene (hERG) potassium channel (Q12809 whole entry, looked up): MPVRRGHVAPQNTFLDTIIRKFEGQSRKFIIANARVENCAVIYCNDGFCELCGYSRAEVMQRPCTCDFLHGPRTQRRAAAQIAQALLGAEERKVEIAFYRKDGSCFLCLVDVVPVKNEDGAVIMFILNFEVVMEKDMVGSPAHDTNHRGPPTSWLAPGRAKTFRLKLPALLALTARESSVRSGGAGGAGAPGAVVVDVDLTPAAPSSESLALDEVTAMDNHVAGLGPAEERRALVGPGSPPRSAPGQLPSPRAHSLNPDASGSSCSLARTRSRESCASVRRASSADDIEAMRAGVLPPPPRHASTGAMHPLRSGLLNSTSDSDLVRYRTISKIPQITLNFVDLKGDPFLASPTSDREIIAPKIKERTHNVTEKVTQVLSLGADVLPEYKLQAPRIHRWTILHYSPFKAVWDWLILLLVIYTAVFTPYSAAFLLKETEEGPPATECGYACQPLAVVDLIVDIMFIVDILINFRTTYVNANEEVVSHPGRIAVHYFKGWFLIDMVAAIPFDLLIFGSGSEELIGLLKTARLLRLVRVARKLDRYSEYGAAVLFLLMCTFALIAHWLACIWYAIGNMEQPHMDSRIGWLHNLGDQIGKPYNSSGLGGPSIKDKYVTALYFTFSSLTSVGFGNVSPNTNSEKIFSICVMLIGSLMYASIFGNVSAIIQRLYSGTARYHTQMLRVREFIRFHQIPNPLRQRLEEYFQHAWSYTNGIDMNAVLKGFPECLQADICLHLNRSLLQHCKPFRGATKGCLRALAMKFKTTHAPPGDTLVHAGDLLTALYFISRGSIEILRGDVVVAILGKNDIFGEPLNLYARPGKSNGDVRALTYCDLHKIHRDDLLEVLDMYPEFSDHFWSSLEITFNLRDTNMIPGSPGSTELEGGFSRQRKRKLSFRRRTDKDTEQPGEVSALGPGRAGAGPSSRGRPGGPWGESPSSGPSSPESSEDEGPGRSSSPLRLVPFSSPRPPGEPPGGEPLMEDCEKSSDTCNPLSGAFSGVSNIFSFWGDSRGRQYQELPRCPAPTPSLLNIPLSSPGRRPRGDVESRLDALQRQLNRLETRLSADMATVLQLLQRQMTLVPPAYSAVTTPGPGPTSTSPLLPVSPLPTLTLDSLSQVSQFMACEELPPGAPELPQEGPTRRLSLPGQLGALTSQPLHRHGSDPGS
On to `Cn1c(SCC(=O)NC(C)(C)C)nc(O)cc1=O`, for which the “hERG current change (%, negative = inhibition) at 1uM” value amounted to 10.3%.

In the case of `CC[N+](C)(C)c1cccc(O)c1.[Cl-]`, the “hERG current change (%, negative = inhibition) at 1uM” value is reported as 5.79%.

As for `COc1ccc(CCNc2oc(COc3ccccc3Cl)nc2C#N)cc1OC`, the “hERG current change (%, negative = inhibition) at 1uM” value came to 1.91%.

Turning to `CCC1Oc2ccc(C)cc2N(CC(=O)NCc2cccc(OC)c2)C1=O` (stereo not drawn), the “hERG current change (%, negative = inhibition) at 1uM” value came to 1.17%.

For `COc1cc(C(=O)NCc2ccco2)cc(OC)c1OC`, the “hERG current change (%, negative = inhibition) at 1uM” value worked out at 14.3%.

Consider `CCCNC(=O)COc1ccccc1[N+](=O)[O-]`, for which the “hERG current change (%, negative = inhibition) at 1uM” value amounted to 0.55%.

`Cn1ccc(O)c(C#N)c1=O`: the “hERG current change (%, negative = inhibition) at 1uM” value came out at 9.27%.

For the compound `CCn1c(Cc2ccccc2)nnc1SCC(=O)c1cccc([N+](=O)[O-])c1`, the “hERG current change (%, negative = inhibition) at 1uM” value is -0.387%.

`Cc1ccc2c(c1)N(CCCC(=O)NCc1ccc3c(c1)OCO3)C(=O)CO2`: the “hERG current change (%, negative = inhibition) at 1uM” value is recorded as -0.437%.

`OC(COc1ccc2ccccc2c1Cl)CN1CCOCC1` (stereo not drawn): the “hERG current change (%, negative = inhibition) at 1uM” value was -7.02%.

As for `CCN1C(=O)[C@H]2[C@@H](c3ccc(C)cc3)N3C(=O)N(c4ccc(C)cc4)C(=O)[C@@]3(Cc3ccc(Cl)cc3)[C@H]2C1=O`, the “hERG current change (%, negative = inhibition) at 1uM” value was 3.87%.

Regarding `CCOc1ccccc1N1CCN(CC(=O)NC(C)c2ccccc2)CC1` (stereo not drawn), the “hERG current change (%, negative = inhibition) at 1uM” value amounted to 9.73%.

For the compound `Cc1[nH]c2ccccc2c1/C=N/NC(=O)c1cc(-c2cccs2)[nH]n1`, the “hERG current change (%, negative = inhibition) at 1uM” value was 8.31%.

As to `COc1ccc(NS(=O)(=O)c2cc(NC(=O)C3CCCCC3)ccc2N2CCOCC2)cc1`, the “hERG current change (%, negative = inhibition) at 1uM” value is 9.77%.

In the case of `CCC(NC(=S)Nc1ccccc1)C(=O)O` (stereo not drawn), the “hERG current change (%, negative = inhibition) at 1uM” value was 10.8%.

For `COc1cccc(N2CCN(S(=O)(=O)c3ccc(-c4cnc(C5CC5)o4)cc3)CC2)c1`, the “hERG current change (%, negative = inhibition) at 1uM” value stood at 12.6%.

For `COc1ccc(NC(=O)c2sccc2-n2cccc2)cc1`, the “hERG current change (%, negative = inhibition) at 1uM” value turned out to be 13.3%.

In the case of `CC1C=CCC2C(=O)N(c3ccccc3OC(=O)c3ccco3)C(=O)C12` (stereo not drawn), the “hERG current change (%, negative = inhibition) at 1uM” value is listed as 14%.

As to `COCCOc1cc(NC(=O)c2sccc2Oc2ccc([N+](=O)[O-])cc2F)c(Cl)cc1Cl`, the “hERG current change (%, negative = inhibition) at 1uM” value turned out to be 5.82%.

On to `COc1cccc2c(=O)n(CC(=O)Nc3ccccc3)ccc12`, for which the “hERG current change (%, negative = inhibition) at 1uM” value worked out at 8.91%.

With `CC(C)Cc1nnc(NC(=O)CSc2nc(-c3ccccc3)cc(=O)[nH]2)s1`, the “hERG current change (%, negative = inhibition) at 1uM” value is reported as 26%.

With `N/C(=N\OC(=O)COc1ccc2ccccc2c1)c1ccncc1`, the “hERG current change (%, negative = inhibition) at 1uM” value is 12.4%.

`CCc1nnc(NC(=O)CSCc2cc(=O)n3ccsc3n2)s1`: the “hERG current change (%, negative = inhibition) at 1uM” value is reported as 11.2%.

Turning to `Cc1ccc(-n2c(-c3ccc([N+](=O)[O-])cc3)nc3ccccc3c2=O)cc1`, the “hERG current change (%, negative = inhibition) at 1uM” value was determined as 3.15%.

For the compound `CCOC(=O)C1=C(Nc2ccccc2)CC(C)(O)C(C(=O)OCC)C1c1ccccc1` (stereo not drawn), the “hERG current change (%, negative = inhibition) at 1uM” value is 14%.

Regarding `Cc1cc(Oc2nnnn2-c2ccccc2)ccc1Cl`, the “hERG current change (%, negative = inhibition) at 1uM” value is 0.766%.

`CCN(Cc1ccc2c(c1)OCO2)C(=O)/C=C/c1cccc(Br)c1`: the “hERG current change (%, negative = inhibition) at 1uM” value is on record as 17.8%.

For `Cc1cccc(C(=O)Nc2nc(C)c(C(=O)Nc3ccc4c(c3)CCC4)s2)c1`, the “hERG current change (%, negative = inhibition) at 1uM” value was 17.9%.

Take `COc1ccc(NC(=O)N2CCC(CO)(CC3CCCCO3)CC2)c(OC)c1` (stereo not drawn): the “hERG current change (%, negative = inhibition) at 1uM” value worked out at 9.96%.

As for `COc1ccc2c(c1)S(=O)(=O)c1ccccc1N2`, the “hERG current change (%, negative = inhibition) at 1uM” value is recorded as 12.3%.

For the compound `Cc1ccc(S(=O)(=O)N2CCN(Cc3ccccc3C(F)(F)F)CC2)cc1`, the “hERG current change (%, negative = inhibition) at 1uM” value is 5.56%.

For the compound `Cc1cc(NS(=O)(=O)c2ccc(Nc3nc(-c4ccc(O)cc4)cs3)cc2)no1`, the “hERG current change (%, negative = inhibition) at 1uM” value was determined as 9.78%.

Take `O=C(O)c1cccc(COc2cccc3ccccc23)c1`: the “hERG current change (%, negative = inhibition) at 1uM” value worked out at 7.07%.

Turning to `COc1ccc2c(c1)C(c1ccccc1)NC(=O)C2` (stereo not drawn), the “hERG current change (%, negative = inhibition) at 1uM” value stood at 6.67%.

Consider `CCOC(=O)c1c(NC(=O)CC2Nc3cc(C)c(C)cc3NC2=O)sc(C)c1C` (stereo not drawn), for which the “hERG current change (%, negative = inhibition) at 1uM” value turned out to be 2.74%.

Take `O=C1CC(=O)N(c2cccc(C(F)(F)F)c2)C(=O)N1`: the “hERG current change (%, negative = inhibition) at 1uM” value is on record as 18.7%.

As for `c1ccc(-c2cc3c(nn2)CCc2nonc2-3)cc1`, the “hERG current change (%, negative = inhibition) at 1uM” value is 12.1%.

On to `O=C(NC(=S)Nc1ccc2c(c1)C(=O)c1ccccc1C2=O)c1ccc(F)cc1`, for which the “hERG current change (%, negative = inhibition) at 1uM” value is 15.7%.

On to `Cc1ccc(/C=C/C(=O)c2ccccc2O)cc1`, for which the “hERG current change (%, negative = inhibition) at 1uM” value stood at 16.9%.

Regarding `CCCCC1=CC2=CC(=O)C(C)(OC(=O)CC)C(=O)C2=CN1c1ccccc1` (stereo not drawn), the “hERG current change (%, negative = inhibition) at 1uM” value was 11.2%.

Turning to `CCCOC(=O)NC1CCS(=O)(=O)C1` (stereo not drawn), the “hERG current change (%, negative = inhibition) at 1uM” value came out at 16.3%.

For `Cc1c(C(=O)NCCc2ccccc2)oc2ccccc12`, the “hERG current change (%, negative = inhibition) at 1uM” value turned out to be 13%.

For the compound `CCc1nnc2n1N=C(c1ccc([N+](=O)[O-])cc1)CS2`, the “hERG current change (%, negative = inhibition) at 1uM” value is reported as -7.51%.

`COc1ccc2c(c1OC)C(=O)OC2CC(=O)c1ccc(N(C)C)cc1` (stereo not drawn): the “hERG current change (%, negative = inhibition) at 1uM” value is reported as 2.12%.

Turning to `CCN(CCn1cccn1)C(=O)C1CCC(=O)N(CCN2CCOCC2)C1` (stereo not drawn), the “hERG current change (%, negative = inhibition) at 1uM” value was determined as 13.2%.
